Assay results: the supplement of paper PMC8291772
± gives the standard error. The list shows a part of the results.

Molecular target: terminal deoxynucleotidyl transferase (calf thymus) (UniProt P06526)
Test: TdT poly-dT extension signal (Cy3 hybridisation fluorescence, uncapped minus capped) (fluorescence a.u.); higher = more efficient initiation of TdT extension
Settings: initiator chemistry: 2'-O-methyl-RNA, free 3'-OH (5'-tethered via HEG linker)
Protocol: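 All mono- to pentamer 2'-O-methyl-RNA initiators were made by photolithographic in situ synthesis (3'-NPPOC amidites, reverse direction, free 3'-OH) on glass on a hexaethylene glycol linker. Each was made in uncapped and DMTr-dT-capped versions, about 11 replicates each. Arrays were extended with calf thymus TdT (0.2 U/uL), 100 uM dTTP and 0.25 mM CoCl2 for 120 min at 37 C, hybridised with an rA18-Cy3 probe and scanned at 532 nm. The value is the mean uncapped minus the mean capped signal. IDs are written 3'->5' and are reversed to 5'->3'; all nucleotides are 2'-OMe.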

UniProt P06526, sequence (P06526 whole entry): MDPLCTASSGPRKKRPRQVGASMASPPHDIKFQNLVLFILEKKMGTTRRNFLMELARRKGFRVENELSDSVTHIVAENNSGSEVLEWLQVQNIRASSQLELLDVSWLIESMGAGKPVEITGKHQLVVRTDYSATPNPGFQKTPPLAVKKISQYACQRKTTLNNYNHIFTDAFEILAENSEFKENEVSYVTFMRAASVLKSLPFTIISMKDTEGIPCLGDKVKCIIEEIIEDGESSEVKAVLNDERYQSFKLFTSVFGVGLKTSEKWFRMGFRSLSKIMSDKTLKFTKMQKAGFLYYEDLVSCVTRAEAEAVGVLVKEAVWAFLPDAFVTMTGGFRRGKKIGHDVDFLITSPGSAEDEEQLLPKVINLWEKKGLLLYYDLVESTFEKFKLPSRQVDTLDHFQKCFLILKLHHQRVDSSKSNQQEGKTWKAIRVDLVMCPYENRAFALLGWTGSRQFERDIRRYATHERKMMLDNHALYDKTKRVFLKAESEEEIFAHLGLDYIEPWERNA

Sequence	TdT poly-dT extension signal
UGUUU	193 ± 14
UUUAA	472 ± 39
GAGUC	564 ± 43
CUACU	259 ± 24
UCACU	353 ± 44
CUACG	220 ± 22
CGGA	599 ± 30
GAGCU	459 ± 69
CCGAG	550 ± 53
AAGC	1020 ± 75
GGACC	526 ± 56
ACUC	497 ± 55
CCGGU	424 ± 52
UUCUG	203 ± 12
ACGG	375 ± 17
CCUUC	341 ± 33
CGUGA	389 ± 45
CACGU	388 ± 16
UUGGA	385 ± 46
CGACC	476 ± 32
CGAAG	535 ± 52
CUUGC	1070 ± 49
UCCGG	282 ± 20
GAAC	734 ± 42
GUAGC	874 ± 90

Sequence	TdT poly-dT extension signal
GACGG	319 ± 29
GACGA	600 ± 69
AUGAU	308 ± 22
GGUGG	322 ± 32
CGCG	333 ± 16
UAGA	749 ± 76
UAAG	401 ± 44
AGUCA	380 ± 51
CACCU	335 ± 26
UUGAU	338 ± 24
GGCC	494 ± 40
GGUG	210 ± 18
GCUGA	489 ± 37
CGGGA	762 ± 120
GUUGU	356 ± 39
UCCAU	530 ± 40
UGCAC	803 ± 100
GGGC	1320 ± 130
UGAUU	284 ± 20
AGCUU	340 ± 23
GCAUU	349 ± 28
GAAAA	1340 ± 160
UAUCU	237 ± 9.4
GGAUA	441 ± 22
UCAGA	821 ± 37

Sequence	TdT poly-dT extension signal
ACUAG	369 ± 32
UAACU	308 ± 19
AGACU	327 ± 17
CUUUU	188 ± 10
UCUCG	247 ± 23
GUCCG	216 ± 15
GGUGC	1450 ± 72
AGGAG	436 ± 25
UGGGC	1020 ± 64
CUGGA	571 ± 53
GCGAC	660 ± 38
AUUGC	975 ± 53
UGUUG	98.8 ± 15
ACUAU	368 ± 48
AUCUC	438 ± 30
CCGUG	247 ± 13
AUAUG	172 ± 15
GGCGU	492 ± 54
CUUCU	228 ± 14
AGGGU	440 ± 31
GGAGU	517 ± 31
GCGGG	285 ± 16
AUAGU	410 ± 26
UUACA	292 ± 35
CCCUU	351 ± 26

Sequence	TdT poly-dT extension signal
GGCCG	218 ± 17
AAUU	299 ± 19
AAGUU	326 ± 30
CGGCA	308 ± 14
UCUAU	351 ± 55
CGACU	361 ± 55
GAGUG	253 ± 36
CCUCU	222 ± 19
UUGU	284 ± 14
CGGCG	295 ± 16
CUCUC	542 ± 36
CGGG	309 ± 20
UAUCG	210 ± 23
UAAUU	334 ± 24
GUAG	390 ± 58
GAUCC	473 ± 23
AGGU	429 ± 28
UACCA	407 ± 46
CCUAA	722 ± 48
UUUCU	226 ± 34
ACCUC	492 ± 33
AGGA	553 ± 43
UCACC	396 ± 31
AACCA	421 ± 35
UCAUU	329 ± 26

Sequence	TdT poly-dT extension signal
GGUCA	350 ± 38
CUCAC	655 ± 34
UCUU	320 ± 16
CGCUG	264 ± 25
AGAU	437 ± 58
AACA	387 ± 36
GCCUG	255 ± 13
AAAUA	608 ± 42
AAUAA	788 ± 62
CGCAG	506 ± 44
GCUA	576 ± 29
GCUUC	403 ± 23
ACUAA	675 ± 43
AUAU	271 ± 21
AACCU	353 ± 24
GCUG	237 ± 21
CCGGC	929 ± 50
AUGAG	369 ± 35
UCUG	199 ± 16
GCAUG	279 ± 20
UCAUA	657 ± 58
ACGCC	647 ± 68
GUGGA	530 ± 40
UGCU	380 ± 54
CUCU	284 ± 19

Sequence	TdT poly-dT extension signal
AAAUU	324 ± 30
AAAAG	572 ± 40
GACU	307 ± 20
GCCAC	704 ± 100
AUGCG	228 ± 24
CUCCU	368 ± 24
UUAGC	1120 ± 85
ACGUU	296 ± 22
UUUCC	311 ± 18
GGGGG	472 ± 39
UUACU	207 ± 24
AUGAC	596 ± 49
UGUUC	338 ± 23
UCAGU	529 ± 32
UAGUC	536 ± 22
CAAGG	388 ± 18
UCGAC	720 ± 77
AUAC	414 ± 24
AAAC	622 ± 50
UACUG	262 ± 20
AGAUG	206 ± 39
UUUGA	308 ± 24
AGUCU	332 ± 42
ACAG	580 ± 55
UUACG	190 ± 16

Sequence	TdT poly-dT extension signal
CACCG	313 ± 30
GUGCG	273 ± 17
UAUUG	134 ± 22
AUACG	244 ± 16
AUAAA	898 ± 66
UCUGC	954 ± 69
CUCCC	434 ± 28
UCCGU	482 ± 36
AACUG	319 ± 43
CCAUA	666 ± 42
UGCAG	452 ± 32
GCCA	256 ± 36
CCGUC	563 ± 68
GCGG	394 ± 28
AUUU	178 ± 16
UGACU	251 ± 16
GGCAC	881 ± 64
UCAAA	1120 ± 90
CAGCC	768 ± 69
AUGCA	396 ± 33
UGGGG	363 ± 14
CGAA	788 ± 63
AACGU	394 ± 33
GAACU	287 ± 24
UAUCA	299 ± 20

Sequence	TdT poly-dT extension signal
GCAAU	567 ± 29
GCCGG	264 ± 21
CCUCA	370 ± 25
CCGA	620 ± 55
AAUCG	207 ± 16
CUUG	189 ± 21
CCGAU	556 ± 57
UCGU	489 ± 51
GAUG	206 ± 16
GCGCA	351 ± 19
CAUAA	765 ± 72
AGCCG	260 ± 29
AGCGU	476 ± 20
CACUC	527 ± 54
GUACA	331 ± 37
GGAU	436 ± 25
GCCAG	491 ± 83
GCUGG	253 ± 27
CAGA	689 ± 73
CAAUA	708 ± 37
GUCAA	824 ± 73
GGGCU	356 ± 31
UCCUA	556 ± 67
AACUC	504 ± 22
AUCGG	267 ± 23

Sequence	TdT poly-dT extension signal
UAAGA	819 ± 37
CCCGA	600 ± 30
UUAC	418 ± 28
CCCCG	227 ± 18
UACUA	554 ± 29
CCGUA	545 ± 40
UGCGU	417 ± 45
CUAG	343 ± 28
UGUU	250 ± 21
CCACU	262 ± 20
UUAAA	1000 ± 81
GGGAA	734 ± 40
AGUUG	160 ± 18
UUGUU	230 ± 10
CGAGU	433 ± 32
UAGCG	313 ± 25
GCACC	529 ± 45
UGUCG	160 ± 19
GGGUC	582 ± 38
UGGC	907 ± 53
UGGUC	503 ± 45
UUCC	422 ± 36
UCACA	352 ± 26
GGAAG	497 ± 83
GACC	422 ± 36

Sequence	TdT poly-dT extension signal
UAGGA	530 ± 36
UCUCC	388 ± 25
CGUUA	322 ± 27
GACG	225 ± 22
ACGA	632 ± 82
GCCU	350 ± 38
AUUUC	283 ± 15
UUAGA	611 ± 30
UAAAC	667 ± 36
CGGU	476 ± 46
CUGAC	549 ± 28
CGAU	429 ± 24
CAAC	741 ± 45
GCUUG	230 ± 30
UACUU	316 ± 30
UCGUU	288 ± 39
GCUC	529 ± 37
AGCAU	538 ± 47
UCAAU	528 ± 49
CACCA	369 ± 15
AGGUC	508 ± 15
GGCCU	354 ± 33
AGUGC	1230 ± 130
GAUGG	187 ± 13
UAUAA	618 ± 64

Sequence	TdT poly-dT extension signal
UGGAA	808 ± 54
CCGAC	582 ± 120
CCACC	410 ± 37
CUUCG	138 ± 9.5
AGAGU	499 ± 44
UACAC	679 ± 35
CUAAG	386 ± 36
UCUGG	193 ± 14
AACAU	577 ± 67
CCCAG	497 ± 38
CGCGC	845 ± 76
GUCCA	319 ± 24
UGAGC	1000 ± 68
CUAGG	361 ± 32
UGCAA	770 ± 77
ACCAG	559 ± 61
GUUCC	438 ± 42
ACAAC	774 ± 98
CGAAC	686 ± 37
UCGA	592 ± 34
UAUUU	210 ± 20
UCGAA	708 ± 55
GCUU	350 ± 26
GUCGA	446 ± 26
